The campaign covered roughly 420,000 compounds. About 64,000 (15%) were called active. Inconclusive means that the source gave no clear call. Such entries were picked first, then a sample of the others. Calls follow the shape of the dose curve; as a rule, active = well fitted inhibition curve with a large enough effect; inconclusive = small, poorly fitted or top-dose-only effect; inactive = flat fitted curve, though single readings scatter. No potency is given beside an inconclusive call; the fits are too rough.
Assay: qHTS for Inhibitors of human tyrosyl-DNA phosphodiesterase 1 (TDP1): qHTS in cells in absence of CPT; also: nearly all actives have a fitted effect of over 55% in size
Details: DT40 Tdp1-/- hTDP1 cells, no CPT, ATP luminescence, 48 h; activity change, negative = growth inhibition: at 46.2 µM (top of the series) unless noted
Summary of the method: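 A cellular qHTS used chicken DT40 cells lacking endogenous Tdp1 but carrying stably transfected human TDP1. Compounds were applied without camptothecin, and cell growth kinetics were judged by ATP-dependent luminescence after ≥48 hr.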
% is scaled to controls: 0 for no effect and ±100 for the full control effect; potency is read from the fitted curve at half-maximal effect; tags tell the direction and shape of the fitted curve.

SMILES	Potency	activity change, negative = growth inhibition
CCN(CC)C(=O)CSc1nc(-c2ccc(C)cc2)nc2c1Cc1c(CO)cnc(C)c1O2	active: 8.2 µM	
COc1ccc2c(c1)NC(C)(C)C=C2C	inconclusive [inhibitor, partial curve]	
COc1ccc([C@H]2CC(=O)C=C(c3cccc(NC(C)=O)c3)C2)cc1		inactive: -15.3%
Nc1ncnc2c1ncn2[C@@H]1O[C@H](CNC(=O)[C@@H](N)C2CCCCC2)[C@@H](O)[C@H]1O		inactive: -1.53%
CC(OC(=O)c1ccc(Cl)nc1)C(=O)Nc1ccc2c(c1)OCO2 (centres undefined)	inconclusive [inhibitor, single point]	
Cc1ccc(/C=C/c2ccc(=O)n(Cc3ccc(Cl)cc3Cl)n2)cc1	inconclusive [inhibitor, single point]	
COc1cccc(-c2nc(SCC(=O)NC3CCCC3)c(-c3ccc(C)cc3)[nH]2)c1	inconclusive [inhibitor, single point]	
CC1=C(c2ccc(C(C)C)cc2)S(=O)(=O)N=C1N1CCC(C(=O)NCCc2ccco2)CC1	inconclusive [inhibitor, single point]	
CC1(C)CC2CC(C)(CN2C(=O)c2cc(-c3ccc(F)cc3)on2)C1 (centres undefined)	inconclusive [inhibitor, single point]	
Cc1ncc2c(c1CNS(=O)(=O)c1cccs1)CCN(C(=O)/C=C/c1ccc(F)cc1F)C2	inconclusive [inhibitor, single point]	
Cc1ccc(CNC(=O)c2ccc3nc(SCc4ccc(F)cc4)[nH]c3c2)cc1	active: 13 µM	
O=C(CCc1ccc(O)c(O)c1)NNC(=S)NCCc1ccccc1	inconclusive [inhibitor, single point]	
Cc1cccc(NC(=O)CN(C)C(C)C(=O)Nc2ccc(S(=O)(=O)N3CCCC3)cc2)c1C (centres undefined)	inconclusive [inhibitor, single point]	
CC(=O)n1cc([C@H]2C=C(C(N)=O)O[C@@H](OCc3ccc(CO)cc3)C2)c2ccccc21	inconclusive [inhibitor, partial curve]	
Cc1ccsc1C(C(=O)NCc1ccccc1)N(C(=O)c1csnn1)c1ccccc1 (centres undefined)	inconclusive [inhibitor, partial curve, poor fit]	
c1ccc(CCNc2c3c(nc4ncnn24)CCC3)cc1	inconclusive [inhibitor, partial curve, poor fit]	
CC(=O)O[C@](C)(CCC=C(C)C)C1CC=C(C)CC1 (some centres undefined)		inactive: 3.71%
CCCOc1cccc(C(=O)Nc2cc(-c3ccccc3)no2)c1	inconclusive [inhibitor, single point]	
COc1ccc(N2C(=O)[C@@H]3C[C@H]2CN3Cc2cccn2-c2nccs2)cc1Cl		inconclusive: -32.3% [inhibitor]
Cc1ccccc1-c1ccc2c(c1)O[C@@H](CN(C)Cc1ccc(C(=O)O)cc1)[C@@H](C)CN([C@H](C)CO)S2(=O)=O	inconclusive [inhibitor, single point]	
CCC(C)C(NC(C)=O)C(=O)NC(=O)NC(c1ccccc1)c1ccccc1 (centres undefined)	inconclusive [inhibitor, single point]	
CC(C)CC(=O)N(c1nnc(-c2cccnc2)s1)C1CCCC1	inconclusive [inhibitor, single point]	
CCOc1cc(/C=C\[N+](=O)[O-])ccc1OCC(=O)Nc1ccccc1C	active: 0.58 µM	

SMILES	Potency	activity change, negative = growth inhibition
OCCN1CCN(c2nccn3ccnc23)CC1		inactive: -2.07%
COCCNc1nc(NCc2cccc(Cl)c2)c2cnn(C)c2n1	active: 14.6 µM	
Nc1ccc(Cl)cc1C(=O)OCC(=O)NC1CCS(=O)(=O)C1 (centres undefined)	inconclusive [inhibitor, partial curve]	
O=S1(=O)CC(N2CCC(c3ccccc3)CC2)CN1Cc1ccc(F)cc1 (centres undefined)	inconclusive [inhibitor, single point]	
Cc1ccc(S(=O)(=O)c2ccc(-n3nc(C)cc3N)cc2)cc1		inactive: -18.1%
CCN(CC(=O)NC(C)(C)C)C(=O)CCl	active: 13 µM	
CCc1cccc(C)c1NC(=O)Cn1nc(C)c2nn(-c3ccc(Cl)cc3)c(C)c2c1=O	active: 20.6 µM	
O=C(CN1CCN(S(=O)(=O)c2ccccc2F)CC1)NC1CCCC1		inactive: -21.3%
O=C(c1ccco1)N1CCN(C(=O)c2cc(-c3ccccc3F)no2)CC1		inactive: -5.39%
Cc1sc(NC(=O)CSc2nnc(CCNC(=O)c3cccs3)n2C)nc1-c1ccccc1	inconclusive [inhibitor, single point]	
O=C1CCC(C(=O)N2CCCC(C(=O)c3ccc4ccccc4c3)C2)=NN1 (centres undefined)	inconclusive [inhibitor, partial curve]	
Cc1[nH]c(C)c(S(=O)(=O)N(Cc2ccccc2)C(C)C)c1C(=O)N1CCCC1		inactive: 7.95%
Cc1ccccc1CC(=O)NCCN1CCCCC1		inactive: 4.43%
CCCN1Cc2cccc(C(=O)Nc3cccc(C(=O)OCC)c3)c2C1=O	inconclusive [inhibitor, partial curve]	
CCCCC(=O)N1CC2(C)CN(C(=O)CCCC)CC(C)(C1)C2=O		inactive: -2.18%
O=C(Nc1ncc2c(n1)-c1ccccc1CC2)c1cccs1	inconclusive [inhibitor, single point]	
CSc1ccc(CN(C)C(=O)CSCC(=O)Nc2ccc(C)cc2)cc1	inconclusive [inhibitor, single point]	
O=c1nc2c(O)cccn2c2c1c(=O)[nH]c1ccccc12	inconclusive [inhibitor, single point]	
COc1ccccc1C(=O)Nc1ccc2oc(-c3cccc4c(Br)cccc34)nc2c1	inconclusive [inhibitor, single point]	
O=C(CSc1nc2ccccc2n1Cc1ccccc1)N/N=C/c1ccco1	inconclusive [inhibitor, single point]	
Cc1oc(C(C)(C)C)cc1C(=O)N1CCN(c2ccc(C(F)(F)F)cn2)CC1	inconclusive [inhibitor, partial curve]	
Cc1ccnc(NC(=O)CCC(=O)N(CC(=O)NC2CCCCC2)c2cccc(C)c2C)c1	inconclusive [inhibitor, single point]	
O=C(CCCN1C(=O)S/C(=C/C=C/c2ccccc2)C1=O)Nc1ccc(C(=O)O)cc1		inactive: 19.7%

SMILES	Potency	activity change, negative = growth inhibition
Nc1nc2ccc(-c3nc4ccccc4o3)cc2s1	inconclusive [inhibitor, single point]	
CC1(Cc2ccccc2Cl)C(=O)Nc2c(Cl)ccc(Cl)c21 (centres undefined)	inconclusive [inhibitor, single point]	
NC(=O)c1ccc(NC(=O)CNc2cc(S(=O)(=O)N3CCOCC3)ccc2N2CCCC2)cc1	inconclusive [inhibitor, single point]	
O=C(O)CC(NC(=O)Cc1ccccc1)c1cc([N+](=O)[O-])ccc1Cl (centres undefined)		inactive: -7.24%
NC(=O)CC(NC(=O)Cc1cccc2ccccc12)c1ccc(NCCOc2ccccc2)c([N+](=O)[O-])c1 (centres undefined)	inconclusive [inhibitor, single point]	
COc1ccc2c(c1)cc1c(=O)n(CC(=O)NC3CC3)nc(C)n12		inactive: 3.95%
N#Cc1ccccc1OCC(=O)Nc1nnc(C2CC2)s1		inactive: -1.2%
O=C(Cc1csc2nc(-c3ccc(F)cc3)cn12)NCc1ccccc1	inconclusive [inhibitor, single point]	
O=C(Nc1ccc(Br)cn1)c1ccc([N+](=O)[O-])cc1Cl		inactive: -27.6%
O=[N+]([O-])c1cc(-c2nc(-c3ccccc3)no2)ccc1NC1CCCCC1		inactive: -6.48%
O=C(CSc1nnc(Nc2ccccc2F)s1)c1cc2ccccc2o1	inconclusive [inhibitor, single point]	
Cc1ccc2oc3c(c(=O)c2c1)C(c1cccc(Br)c1)N(Cc1ccco1)C3=O (centres undefined)	active: 20.6 µM	
CCCN(C)C[C@@H]1OCCCC[C@@H](C)Oc2ccc(NS(=O)(=O)c3ccc(OC)cc3)cc2C(=O)N([C@H](C)CO)C[C@@H]1C	inconclusive [inhibitor, single point]	
Cc1c(O)c(CN(C)C)cc2c1oc(=O)c1ccccc12		inconclusive: -34.1% [inhibitor]
CN(C)CC(=O)Nc1nc(-c2ccccc2)cs1	inconclusive [inhibitor, partial curve]	
COc1ccc(Br)cc1-c1nc(CCl)cs1	active: 14.6 µM	
COc1cccc(Cn2c(=O)c(-c3ccccc3)nc3cnc(N4CCN(C)CC4)nc32)c1	inconclusive [inhibitor, single point]	
CC1CCN(C(=O)COC(=O)c2ccccc2C(=O)c2ccccc2)CC1	inconclusive [inhibitor, single point]	
O=C(CC1SC(N2CCOCC2)=NC1=O)Nc1cccc(C(F)(F)F)c1 (centres undefined)		inactive: -11.3%
O=C(NC1CCCCCC1)c1cc(S(=O)(=O)N2CCOCC2)ccc1N1CCCCC1	inconclusive [inhibitor, single point]	
C[C@H](NC(=O)c1nc[nH]c1C(=O)NCC(=O)OC(C)(C)C)C(=O)OC(C)(C)C		inconclusive: -37.8% [inhibitor]
COc1ccc(C2c3cc(OC)c(OC)cc3CC(=O)N2c2ccc(C)c(F)c2)cc1 (centres undefined)	active: 3.66 µM	
CC1(C(=O)NCc2ccc(F)c(F)c2)Cc2c(-c3ccc4c(c3)OCO4)ccnc2O1 (centres undefined)	active: 2.91 µM	

— PubChem BioAssay AID686978 (National Center for Advancing Translational Sciences (NCATS), 2013)
